According to ChEMBL document CHEMBL1201862, “PubChem BioAssay data set” (2004):
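Dose response: 5 concentrations. Exposure: 48 h. Format: 96-well plates. Endpoint: linear interpolation; highest concentration if not reached. The concentration for 50% growth inhibition is given as GI50.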 Active and inactive are the calls of the source. Cut-off read from the data, not from the text of the source: active = GI50 up to about 1.1 µM and inactive = higher.

The molecules below were run on NCI-H322M (assay: DTP human tumour cell line panel, 48 h).

SMILES	GI50
c1ccc2c(c1)C1=NCCN1c1ccccc1-2	inactive: 2.42 µM
O=C1c2cc(Br)ccc2-c2ccc3c4ccc5c6c(ccc(c7ccc1c2c73)c64)C(=O)c1cc(Br)ccc1-5	inactive: > 100 µM
O=C(O[C@H]1CCN2C[C@H]3C[C@H](CN4C(=O)CCC[C@H]34)[C@@H]2C1)c1ccc(O)cc1	inactive: > 100 µM
N#CC12C(=O)N3C(=NC(c4ccccc4)NC3c3ccccc3)C1(C#N)C(c1ccccc1)NC1=C2CCC1 (stereo not given)	inactive: > 100 µM
COC(=O)C(I(OS(=O)(=O)c1ccc(C)cc1)c1ccccc1)=P(c1ccccc1)(c1ccccc1)c1ccccc1	inactive: 29.2 µM
COc1cc(C2SCC(=O)N2c2ccc(NC(=O)c3ccc(N4C(=O)CSC4c4cc(OC)c(OC)c(OC)c4)cc3)cc2)cc(OC)c1OC (stereo not given)	inactive: > 100 µM
CCOC(=O)NC(=O)c1cn(CCCOC(=O)CCCCCCCCCCC(=O)OCCCn2cc(C(=O)NC(=O)OCC)c(=O)[nH]c2=O)c(=O)[nH]c1=O	inactive: > 100 µM
CC(C)(C)N/N=C(\C(=O)Nc1cccc(Cl)c1)C1C(=O)Nc2ccccc2[S+]1[O-] (stereo not given)	inactive: > 100 µM
CCN(CC)c1ccc2cc(C(=O)Nc3ccccn3)c(=N)oc2c1	inactive: > 100 µM
Cc1nc(N(C(C)C)C(C)C)c(C(C)C)o1	inactive: > 100 µM
O=[N+]([O-])c1ccc2nc(/C(=N/Nc3ccccc3)C(O)c3ccco3)c(O)nc2c1 (stereo not given)	inactive: > 100 µM
Cc1ccc(C2=C(c3ccc(C)cc3)C(c3ccc(C)cc3)=C(c3ccc(C)cc3)C2=O)cc1	inactive: > 100 µM
O=C(/C=C/c1cc2ccccc2o1)N1CCN(c2ccccn2)CC1	inactive: > 100 µM
Cc1ccccc1C(=O)Oc1ccc(O)cc1	inactive: > 100 µM
CC1CC(N)=C(C#N)C1(C#N)C#N (stereo not given)	inactive: > 100 µM
CN(C)/C=N/c1nc2ncn(CCOC(=O)c3ccccc3)c2c(=O)[nH]1	inactive: > 100 µM
Clc1ccc(/C(=C\c2ccccc2)Cn2ccnc2)cc1	inactive: 27.2 µM
COC(=O)c1ccccc1C#CCCCOS(C)(=O)=O	inactive: > 10 µM

SMILES	GI50
O=C1c2ccccc2C(O)(C(=O)O)C1(O)CC=C(Cl)Cl (stereo not given)	inactive: > 125 µM
N/C(=C\c1ccc(/C=C(\NC(=O)c2ccccc2)c2nc3c([nH]2)C(=O)c2ccccc2C3=O)cc1)c1nc2c([nH]1)C(=O)c1ccccc1C2=O	inactive: 16 µM
CCOC(=O)/C(=C\c1ccc(N(C)C)cc1)S(=O)(=O)C(F)(F)C(F)(F)C(F)(F)C(F)(F)F	inactive: > 100 µM
CC(=O)O[C@@H]1[C@H](OC2CCCCC2(c2ccccc2)c2ccccc2)O[N+]([O-])=CC12CCCCC2 (stereo not given in full)	inactive: 16.4 µM
C=C1C[C@]23CC[C@@H]4C(CO)(CO)CC(=O)C[C@]4(C)[C@@H]2CC[C@H]1C3	inactive: > 100 µM
O=C1OC(CC(=O)c2ccc(F)cc2)C(Cl)=C1Cl (stereo not given)	inactive: 18.3 µM
CN1CC=C(OP(=O)(NCc2ccccc2)N(CCCl)CCCl)CC1 (stereo not given)	inactive: > 100 µM
COc1ccc([N+](=O)[O-])c2c(NCC(O)CO)ccnc12 (stereo not given)	inactive: 98.4 µM
CC(C)(C)OC(=O)n1c(Cl)c(C=O)c2ccccc21	inactive: 19.8 µM
Cc1cc(N(CCC#N)CCC#N)ccc1C(/N=N\c1ccc(C(=O)O)cc1)=N\NC(=O)c1cc(Cl)ccc1O	inactive: 35.8 µM
CCN(C)c1nc(N(C)CC)c2nc(N(C)CC)nc(N(C)CC)c2n1	inactive: > 100 µM
O=c1[nH]c2nc[nH]c2c(=O)n1C1CCCCC1	inactive: > 100 µM
CC(=O)C(=Cc1ccc(C=C(C(C)=O)C(C)=O)cc1)C(C)=O	inactive: 2.37 µM
CC(=O)O/N=C(Cl)/C(Cl)=N/OC(C)=O	inactive: > 100 µM
COc1cc2c(cc1OC(=O)CC(C)O)C1C(OC2=O)C(OC(C)=O)C=C2CCN(C)[C@H]21 (stereo not given in full)	inactive: 34.4 µM
O=C(O)C[C@H]1CCCCC12CCOC2=O (stereo not given in full)	inactive: > 100 µM
CC1(C)CC(O)C(C)(C)[C@@H](O)C1 (stereo not given in full)	inactive: > 100 µM
